Source: PubChem BioAssay AID1466 (National Center for Advancing Translational Sciences (NCATS), 2008)
In all, about 200,000 compounds went through this assay and about 10 (0.005%) were called active. Inconclusive results, whose numbers are uncertain, are shown with a selection of clear calls. Calls follow the shape of the dose curve; as a rule, active = well fitted inhibition curve with a large enough effect; inconclusive = small, poorly fitted or top-dose-only effect, or effect the other way, or another doubt; inactive = no such curve, though single readings can be large or run the other way. No potency is given beside an inconclusive call; the fits are too rough.

Target: Lysosomal alpha-glucosidase (Homo sapiens) (UniProt P10253)
Assay: qHTS Assay for Inhibitors of Human alpha-Glucosidase as a Potential Chaperone Treatment of Pompe Disease;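 as to activity change, negative = inhibition: plate controls were uninhibited enzyme wells for no effect and no-enzyme background for full effect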
Details: purified human GAA, 4-MU-alpha-glucoside fluorescence; activity change, negative = inhibition: at 76.9 µM (top of the series) unless noted
Procedure, shortened: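 Fluorogenic assay: 4 nM human alpha-glucosidase with 400 uM 4-methylumbelliferyl-alpha-D-pyranoside in 50 mM citrate/phosphate, 0.005% Tween-20, pH 5.0, 20 min at room temperature. Compounds tested up to 77 uM; AC50 from Hill fits.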
Potency is read from the fitted curve at half-maximal effect; tags tell the direction and shape of the fitted curve.

Q: For `COc1cccc(-c2cc(C(=O)Nc3ccc([N+](=O)[O-])cn3)c3ccccc3n2)c1`, which Potency is on record?
A: The Potency was inconclusive [inhibitor, single point].

Q: With `COc1ccccc1N1CCN(C(=O)c2ccc(NS(=O)(=O)c3ccc(C)cc3)cc2)CC1` as the molecule, how does the Potency read?
A: Its Potency is “inactive”.

Q: Which activity change, negative = inhibition does the source give for `Cc1ccc(Cn2c(=N)c(C#N)cc3c(=O)n4cccc(C)c4nc32)cc1` here?
A: Its activity change, negative = inhibition is inconclusive: 18.3% [activator].

Q: With `COc1ccc(NC(=O)CC2Nc3cccc4cccc(c34)NC2=O)cc1` (stereo unspecified) as the molecule, how does the Potency read?
A: Its Potency is inconclusive [inhibitor, full curve].

Q: With `Cc1nc(NC(=O)c2ccccc2)sc1-c1csc(NCc2ccco2)n1` as the molecule, how does the Potency read?
A: The Potency was inconclusive [inhibitor, full curve, poor fit].

Q: Which Potency does the source give for `CNC(=O)c1nnn(Cc2ccccc2)c1NC(C)=O` here?
A: Its Potency is inconclusive [inhibitor, full curve].

Q: Which activity change, negative = inhibition does the source give for `CC(=O)OCC(=O)N1N=C(c2ccc3ccccc3c2)CC1c1ccccc1` (stereo unspecified) here?
A: The activity change, negative = inhibition was inconclusive: -16.6% [inhibitor].

Q: With `Cc1ccccc1Nc1nc(N)nc(COC(=O)CC2CC3CCC2C3)n1` (stereo unspecified) as the molecule, how does the Potency read?
A: Its Potency is inconclusive [inhibitor, single point].

Q: `Cc1ccc(-n2c(-c3ccco3)nc3nc4ccccc4nc32)cc1` was tested. Which Potency did it give?
A: Its Potency is inconclusive [activator, full curve].

Q: With `Cc1ccc(NC(=O)CCCSc2nc3ccccc3[nH]2)cc1` as the molecule, how does the Potency read?
A: Its Potency is inconclusive [inhibitor, full curve, poor fit].

Q: How did the Potency turn out when `Nc1nc(SCc2ccccc2Cl)nc2nc3c(cc12)CCCC3` was run?
A: The Potency was inconclusive [inhibitor, single point].

Q: `COc1cccc(NC(=O)C2CCN(S(=O)(=O)c3ccc4c(c3)OCCO4)CC2)c1` was tested. Which Potency did it give?
A: Its Potency is inconclusive [inhibitor, partial curve, poor fit].

Q: `CN(C)C(=O)CC12CC3CC(C1)CC(CC(=O)N(C)C)(C3)C2` was tested. Which Potency did it give?
A: The Potency was inconclusive [inhibitor, full curve, poor fit].

Q: How did the activity change, negative = inhibition turn out when `CC(C)CCN1CCN(Cc2ccc(Sc3nncn3C)o2)CC1CCO` (stereo unspecified) was run?
A: The activity change, negative = inhibition was inconclusive: 16.4% [activator].

Q: Which activity change, negative = inhibition does the source give for `O=Cc1cn[nH]c1-c1ccccc1` here?
A: Its activity change, negative = inhibition is inconclusive: 20.4% [activator].

Q: For `Cc1ccc(C(=O)c2coc3c2C(=O)C(=O)c2ccccc2-3)cc1`, which Potency is on record?
A: The Potency was “inactive”.

Q: Which Potency does the source give for `O=C(Nc1ccc(-c2nc3cccnc3s2)cc1)c1ccc(Br)o1` here?
A: Its Potency is inconclusive [activator, partial curve].

Q: For `CCCNC(=O)COC(=O)c1cc2c(=O)n3ccccc3nc2s1`, which activity change, negative = inhibition is on record?
A: Its activity change, negative = inhibition is inconclusive: 111% [activator].

Q: `CC(C)(C)c1ccc(C(=O)Nc2ncn[nH]2)cc1` was tested. Which activity change, negative = inhibition did it give?
A: The activity change, negative = inhibition was inconclusive: 19.3% [activator].

Q: How did the Potency turn out when `c1ccc2c(c1)ncn2Cc1nnc2sc(-c3ccncc3)nn12` was run?
A: The Potency was “inactive”.

Q: `Cc1cc(NCc2ccco2)nc(N2CCC(C(=O)NC3CCCCC3)CC2)n1` was tested. Which activity change, negative = inhibition did it give?
A: Its activity change, negative = inhibition is inconclusive: 14.5% [activator].

Q: `CCc1nnc(NC(=O)CSc2nnc(C3CCCCC3)n2-c2cccc(Cl)c2)s1` was tested. Which Potency did it give?
A: The Potency was inconclusive [inhibitor, single point].

Q: For `CSc1ccccc1C(=O)C1CCCN(C(=O)CCc2cccnc2)C1` (stereo unspecified), which activity change, negative = inhibition is on record?
A: Its activity change, negative = inhibition is inconclusive: 19.9% [activator].

Q: How did the Potency turn out when `Cc1cc(C)n(CCOc2nonc2N)n1` was run?
A: Its Potency is inconclusive [inhibitor, single point].

Q: Which activity change, negative = inhibition does the source give for `CC(C)(C)N(CC#CCC(O)(c1ccccc1)C1CCCC1)CCO` (stereo unspecified) here?
A: The activity change, negative = inhibition was inconclusive: 6.11% [activator].

Q: With `COc1cc(OC)cc(N(C(=O)CNC(=O)c2cccs2)C(C(=O)NCC2CCCO2)c2ccc(OC)c(OC)c2)c1` (stereo unspecified) as the molecule, how does the activity change, negative = inhibition read?
A: Its activity change, negative = inhibition is inconclusive: 3.48% [activator].

Q: How did the activity change, negative = inhibition turn out when `CCN(CC)CCN(C)C(=O)c1ccc(OC2CCN(C(=O)C3CC3)CC2)cc1` was run?
A: The activity change, negative = inhibition was inconclusive: 16.6% [activator].

Q: `NC(=NCCc1c[nH]c2ccccc12)NS(=O)(=O)c1ccc(F)cc1` was tested. Which Potency did it give?
A: Its Potency is “inactive”.

Q: `COc1ccc(CC2(CO)CCN(Cc3cc4ccccc4o3)CC2)cc1` was tested. Which Potency did it give?
A: The Potency was inconclusive [inhibitor, partial curve, poor fit].

Q: How did the Potency turn out when `COc1ccc(C(C)=O)cc1COc1ccc([N+](=O)[O-])c(C)c1` was run?
A: Its Potency is inconclusive [inhibitor, single point].

Q: How did the Potency turn out when `Fc1ccc(NC(=S)NC2CC3CCCC(C2)N3Cc2cccs2)cc1` (stereo unspecified) was run?
A: The Potency was “inactive”.

Q: Which activity change, negative = inhibition does the source give for `CC(C)C(=O)NNC(=O)CSc1nnnn1C(C)C` here?
A: The activity change, negative = inhibition was inconclusive: 15.1% [activator].

Q: With `CC(C)(C)c1ccc(-c2nnc(SCCC#N)n2C2CCCC2)cc1` as the molecule, how does the Potency read?
A: The Potency was inconclusive [inhibitor, single point].

Q: Which Potency does the source give for `OCCNc1nc(OCC(F)(F)F)nc(N2CCN(C34CC5CC(CC(C5)C3)C4)CC2)n1` here?
A: Its Potency is inconclusive [inhibitor, single point].

Q: How did the Potency turn out when `O=C(Nc1ccccc1C(F)(F)F)N1CCN(c2ccc3nnc(-c4ccc(F)cc4)n3n2)CC1` was run?
A: Its Potency is inconclusive [inhibitor, single point].

Q: Which Potency does the source give for `CCCc1cc(=O)oc2c(CN3CCCC3)c(O)ccc12` here?
A: Its Potency is inconclusive [activator, partial curve].

Q: With `O=C(CCC1CCCN(C(=O)c2ccoc2)C1)NCc1ccc(F)c(F)c1` (stereo unspecified) as the molecule, how does the activity change, negative = inhibition read?
A: Its activity change, negative = inhibition is inconclusive: 10.2% [activator].

Q: Which Potency does the source give for `CC1CCCC(NC(=S)Nc2ccc(SC(F)F)cc2)C1C` (stereo unspecified) here?
A: The Potency was inconclusive [inhibitor, full curve, poor fit].

Q: `CC(C)CCNc1nc(-c2ccco2)c2c(c1C#N)CCCC2` was tested. Which Potency did it give?
A: Its Potency is inconclusive [activator, partial curve].

Q: `O=C(N/N=C/c1cc2c(cc1Cl)OCO2)c1ccncc1` was tested. Which Potency did it give?
A: The Potency was inconclusive [inhibitor, partial curve, poor fit].

Q: With `COc1ccc(C(=S)N2CCOCC2)cc1OC(=O)c1cccc([N+](=O)[O-])c1` as the molecule, how does the Potency read?
A: The Potency was inconclusive [activator, full curve].

Q: How did the Potency turn out when `COc1ccc(C2CC(c3cccs3)=NN2c2ccccc2)cc1` (stereo unspecified) was run?
A: The Potency was inconclusive [activator, partial curve].

Q: Which Potency does the source give for `Cc1cc(C)c(NC(=O)COc2ccccc2C(=O)Nc2ccc3c(c2)oc2ccccc23)c(C)c1` here?
A: Its Potency is inconclusive [activator, partial curve].

Q: How did the Potency turn out when `Cc1ccc(Oc2nnc(-c3ccccc3)cc2C#N)cc1` was run?
A: Its Potency is inconclusive [inhibitor, single point].

Q: `Cc1nn(C)c(C)c1Nc1ccc(N2C(=O)C3CC=CCC3C2=O)cc1[N+](=O)[O-]` (stereo unspecified) was tested. Which Potency did it give?
A: The Potency was inconclusive [inhibitor, partial curve].

Q: How did the Potency turn out when `CCCCNCC1C(Oc2ccc(Cl)cc2)C(=O)N1c1ccccc1C` (stereo unspecified) was run?
A: Its Potency is inconclusive [inhibitor, single point].

Q: `O=C1CN(C(=O)OCc2ccccc2)c2ccccc2N1` was tested. Which Potency did it give?
A: Its Potency is inconclusive [inhibitor, partial curve].

Q: With `O=C(O)c1cc(N/N=C2/CC(c3ccccc3)Oc3ccccc32)ccc1Cl` (stereo unspecified) as the molecule, how does the Potency read?
A: The Potency was inconclusive [inhibitor, single point].

Q: For `COc1ccc(S(=O)(=O)N2CCN(CC(=O)Nc3ccc(C)c(F)c3)CC2)cc1`, which Potency is on record?
A: Its Potency is inconclusive [inhibitor, partial curve, poor fit].

Q: `COc1ccc(C(=O)Nc2ncc3c(n2)-c2ccccc2CC3)cc1` was tested. Which activity change, negative = inhibition did it give?
A: The activity change, negative = inhibition was inconclusive: 9.63% [activator].

Q: With `Cc1cccc(Cc2c(C)nc3nc(SCC(=O)NCc4ccco4)nn3c2C)c1` as the molecule, how does the Potency read?
A: The Potency was inconclusive [inhibitor, single point].

Q: `O=C(O)c1ccc(NC2=C/C(=N/S(=O)(=O)c3ccccc3)c3ccccc3C2=O)cc1` was tested. Which Potency did it give?
A: Its Potency is “inactive”.

Q: With `O=C(COC(=O)c1cccc(C(=O)OCC(=O)c2ccc(Br)cc2)n1)c1ccc(Br)cc1` as the molecule, how does the Potency read?
A: The Potency was inconclusive [inhibitor, full curve, poor fit].

Q: How did the activity change, negative = inhibition turn out when `Cc1ccc(C(=O)OCC(=O)Nc2nc(-c3ccccc3)cs2)cc1NC(=O)c1ccco1` was run?
A: Its activity change, negative = inhibition is inconclusive: 8.91% [activator].

Q: How did the activity change, negative = inhibition turn out when `Cc1cc(C)c(C#N)c(SCc2ccc(F)cc2)n1` was run?
A: The activity change, negative = inhibition was inconclusive: 15.4% [activator].

Q: With `CCC(C)C1=CC(=Nc2c(C)n(C)n(-c3ccccc3)c2=O)C=C(C(C)CC)C1=O` (stereo unspecified) as the molecule, how does the activity change, negative = inhibition read?
A: Its activity change, negative = inhibition is inconclusive: -20.8% [inhibitor].

Q: `CCN(Cc1ccccc1)S(=O)(=O)c1ccc(C(=O)N2CCN(c3nc4ccccc4s3)CC2)cc1` was tested. Which Potency did it give?
A: The Potency was inconclusive [inhibitor, full curve, poor fit].

Q: `COCCNc1nc2c(S(=O)(=O)c3cc(C)ccc3C)nnn2c2ccccc12` was tested. Which activity change, negative = inhibition did it give?
A: Its activity change, negative = inhibition is inconclusive: 24.5% [activator].

Q: `OCCCc1cn(-c2ccccc2)c2ccccc12` was tested. Which activity change, negative = inhibition did it give?
A: The activity change, negative = inhibition was inconclusive: 11.3% [activator].

Q: With `COc1cccc(C(=O)Oc2c(Br)cc(Br)cc2/C=N/NC(=O)c2cc(C)[nH]n2)c1` as the molecule, how does the Potency read?
A: The Potency was inconclusive [inhibitor, single point].

Q: Which activity change, negative = inhibition does the source give for `c1ccc(-c2cn3cccnc3n2)cc1` here?
A: Its activity change, negative = inhibition is inconclusive: 107% [activator].

Q: How did the activity change, negative = inhibition turn out when `O=C(/C=C/c1ccccc1)C1=C(O)C(=O)N(CCO)C1c1ccccc1[N+](=O)[O-]` (stereo unspecified) was run?
A: The activity change, negative = inhibition was inconclusive: 13.4% [activator].

Q: For `COC(=O)c1sccc1NC(=S)Nc1ccc(F)cc1F`, which activity change, negative = inhibition is on record?
A: Its activity change, negative = inhibition is inconclusive: 10.7% [activator].

Q: With `CC(C)Oc1ccc(NC(=O)Oc2ccccc2)cc1` as the molecule, how does the Potency read?
A: The Potency was inconclusive [inhibitor, single point].

Q: For `Cn1nc(C(F)(F)F)c2cc(C(=O)N3CCOCC3)sc21`, which Potency is on record?
A: Its Potency is inconclusive [activator, full curve].

Q: For `COc1ccc(/C=N/NC(=S)Nc2ccccc2)cc1COc1ccc(F)cc1F`, which Potency is on record?
A: The Potency was inconclusive [inhibitor, full curve, poor fit].
